The antibiotic and cytotoxicity screens of Wong et al. (2023)
The list shows a part of the results.

system: S. aureus RN4220; assay: growth inhibition call (relative growth <= 0.2); settings: 50 µM

Growth inhibition call, inactive:
C[C@@H]1CN([C@@H](C)CO)C(=O)c2cccc(NC(=O)c3ccc(-c4nccs4)cc3)c2O[C@@H]1CN(C)Cc1ccc(Cl)c(Cl)c1
C[C@@H]1CN([C@@H](C)CO)C(=O)Cc2cc(NC(=O)CCN3CCOCC3)ccc2O[C@@H]1CN(C)CC1CC1
CC(C)=CCC/C(C)=C/C=O
O=C(CS)NCCCCCNC(=O)[C@@H]1C[C@@H]2C(=O)N[C@@H](Cc3ccccc3)C(=O)N2[C@@H]1c1ccc(O)cc1
Cc1noc(C)c1NC(=O)N(C)C[C@@H]1Oc2c(NS(=O)(=O)c3cn(C)cn3)cccc2C(=O)N([C@@H](C)CO)C[C@@H]1C
NCC[C@H]1CC[C@H](NC(=O)Nc2ccc(F)cc2)[C@H](CO)O1
NCC[C@H]1CC[C@H](NC(=O)C2CCCCC2)[C@H](CO)O1
C[C@H](O)C#Cc1ccc2c(c1)O[C@@H](CN(C)C)[C@H](C)CN([C@H](C)CO)S2(=O)=O
C[C@H](CO)N1C[C@H](C)[C@@H](CN(C)C(=O)c2cc(Cl)cc(Cl)c2)OCc2ccccc2-c2c(n(C)c3ccccc23)C1=O
CC1CC2C3CCC4=CC(=O)C=CC4(C)C3(F)C(O)CC2(C)C1(O)C(=O)COP(=O)([O-])[O-].[Na+].[Na+] (stereo unspecified)
C[C@H]1CN([C@@H](C)CO)C(=O)Cc2cc(NC(=O)Nc3ccc(C(F)(F)F)cc3)ccc2O[C@H]1CN(C)Cc1ccncc1
